Screen size: about 48,000 compounds; about 1,200 (2.5%) were called active. About 2% were inconclusive and are not listed.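 The calls were made as follows: active = activation of at least 60% and not above a set upper limit (about 1 call in 100 departs from these limits); inconclusive = activation of 40% to 60%, or above that upper limit; inactive = activation under 40%.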 The list shows a part of the results.

The test has as its target Probable G-protein coupled receptor 32 (Homo sapiens) (UniProt O75388). As to the kind of experiment: qHTS for Agonists of Human Resolvin D1 Receptor DRV1. Also: 0% is about no effect. To be noted: CHO-K1 GPR32 beta-arrestin PathHunter luminescence, 90 min; at 76.9 µM; active compounds read high; zero percent set by DMSO-only wells. A digest of the protocol: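 CHO-K1 cells stably expressing ProLink-tagged GPR32 and Enzyme Activator-tagged beta-arrestin were seeded at 2,500 cells/well overnight, exposed to compounds for 90 min at 37 °C, then read by beta-Gal complementation chemiluminescence after 1 h detection reagent.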
Sequence of UniProt O75388 (O75388 whole entry, looked up): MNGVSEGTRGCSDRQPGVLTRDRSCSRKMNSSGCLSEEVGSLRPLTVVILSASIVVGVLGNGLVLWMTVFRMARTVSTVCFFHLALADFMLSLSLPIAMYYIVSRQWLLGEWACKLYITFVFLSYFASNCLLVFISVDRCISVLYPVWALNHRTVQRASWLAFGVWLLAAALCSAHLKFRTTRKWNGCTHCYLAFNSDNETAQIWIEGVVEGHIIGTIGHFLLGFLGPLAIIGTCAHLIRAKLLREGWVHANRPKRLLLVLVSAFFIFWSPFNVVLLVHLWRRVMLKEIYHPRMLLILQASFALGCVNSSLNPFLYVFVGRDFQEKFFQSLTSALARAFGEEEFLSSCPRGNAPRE
As to `Oc1c(C(c2ccccc2F)N2CCN(c3ccccc3F)CC2)sc2nc(-c3ccco3)nn12` (stereo not drawn), the activation was inactive: 4.07%.

Consider `CCOC(=O)CSC1=Nc2ccccc2C2=NC(CCC(=O)NCc3ccc(OC)cc3)C(=O)N12` (stereo not drawn), for which the activation is inactive: -16.2%.

Regarding `COc1ccccc1Cn1ccn(Cc2ccc(C)cc2)c(=O)c1=O`, the activation is inactive: -10.6%.

For the compound `COc1ccc(CNC(=O)CCC2N=C3c4ccccc4N=C(SCc4ccccc4F)N3C2=O)cc1` (stereo not drawn), the activation is inactive: 8.53%.

As for `Cc1cc(C)c(NC(=O)CSc2nccn2-c2cccc(Cl)c2)c(C)c1`, the activation was inactive: -20.5%.

Take `CCCc1cc(N2CCN(c3cccc(C)c3C)CC2)n2cnnc2n1`: the activation was inactive: 26.6%.

Turning to `CCOC(=O)C(Cc1ccccc1)NC(=O)CCc1c(C)nc2nc(C)nn2c1C` (stereo not drawn), the activation is inactive: 20.4%.

Regarding `COc1ccc(NC(=O)c2sc3nc4c(cc3c2N)CCCCCC4)cc1`, the activation is active: 73.8%.

In the case of `COc1cccc(-n2c(-c3ccccc3F)nc3c(cnn3-c3ccc(C)cc3)c2=O)c1`, the activation was inactive: -3.45%.

Take `COCCNC(=O)CSc1nc2cc3c(cc2c(=O)n1CCCC(=O)NCc1ccc2c(c1)OCO2)OCO3`: the activation is inactive: -10.2%.

As to `Cc1ccccc1OCc1nc2c3cnn(-c4ccccc4F)c3ncn2n1`, the activation was inactive: -7.7%.

For `Cc1ccccc1NC(=O)CSc1nc(-c2ccccc2)cn1-c1ccccc1F`, the activation is inactive: -31.5%.

Consider `O=C(NC1CCCC1)c1ccc2c(=O)n(Cc3ccccc3)c(SCc3cccc([N+](=O)[O-])c3)nc2c1`, for which the activation was inactive: -8.2%.

For `COc1ccc(CNC(=O)CSc2ncc3c(n2)-c2cc(Cl)ccc2N(Cc2ccccc2)S3(=O)=O)cc1`, the activation is inactive: 2.49%.

As for `CCc1ccc(OCC(=O)Nc2cc(-c3ccc(C)cc3)no2)cc1`, the activation was inactive: -3.33%.

For `CCOC(=O)Cn1c(=O)cc(C(F)(F)C(F)(F)F)c2c(C)nn(CC)c21`, the activation is inactive: -9.59%.

As to `COc1ccc(OCC(=O)Nc2ccc(Cl)c(-c3nc4ncccc4o3)c2)cc1`, the activation was inactive: 11.5%.

Consider `COC(=O)c1cc2sc(Cl)cc2n1CC(=O)Nc1cc(OC)cc(OC)c1`, for which the activation is active: 88.5%.

As for `O=C1CN(C(=O)COc2ccccc2)C(c2ccc(F)cc2)c2cc(Br)ccc2N1` (stereo not drawn), the activation was inactive: -23.8%.

As to `COc1ccc(-c2nn(-c3ccc(F)cc3)c3c2cnc2ccc(F)cc23)cc1OC`, the activation is inactive: -6.61%.

Take `Cc1ccc(NC(=O)CCCn2c(=O)c3cccn3c3ccccc32)cc1Cl`: the activation is inactive: -7.38%.

Turning to `CCCc1nn2c(=O)cc(COC(=O)C3CCCCC3)nc2s1`, the activation is inactive: 33%.

Regarding `COC(=O)c1ccccc1NC(=O)c1oc2ccc3c(c2c1C)C(=O)CC(C)(C)O3`, the activation was inactive: -7.66%.

Regarding `O=C(NCc1nc2ccccc2n1Cc1ccccc1Cl)c1ccccc1`, the activation is inactive: -24.6%.

For `CCOc1ccc(CCNC(=O)Cn2ccc3cc(S(=O)(=O)N4CCCCC4)ccc32)cc1`, the activation is inactive: 16%.

For the compound `COCCn1c(SCC(=O)c2c(C)[nH]c3ccccc23)nc2cc(C(=O)NC(C)C)ccc2c1=O`, the activation is inactive: -7.22%.

With `Cc1ccc(Cl)cc1NC(=O)Nc1cn(CC(C)C)c(=O)c2ccccc12`, the activation was inactive: 6.04%.

As to `Cc1ccccc1CN1C(=O)c2ccccc2Sc2ccc(C(=O)NCc3ccccc3)cc21`, the activation is inactive: -14.5%.

Turning to `O=C(Nc1ccccc1F)c1nc(SCc2ccccc2F)ncc1Cl`, the activation was inactive: -4.73%.

For `COc1cccc(CNC(=O)c2ccc3c(c2)N(Cc2ccc(F)cc2Cl)C(=O)c2ccccc2S3)c1`, the activation is inactive: -19.3%.

`CCOC(=O)c1ccc(NC(=O)CSc2nnc(-c3ccncc3)n2-c2ccccc2)cc1`: the activation was inactive: -1.84%.

Consider `COc1ccc(-n2nc(C(=O)Nc3ccc(C)cn3)c3c4ccccc4n(C)c3c2=O)cc1Cl`, for which the activation was inactive: -9.47%.

In the case of `Cc1cccc(C)c1NC(=O)Cn1c(=O)n(Cc2ccccc2Cl)c(=O)c2cccnc21`, the activation was inactive: -3.26%.

On to `NC1(c2ccc(-c3nc4ccn5c(=O)[nH]nc5c4cc3-c3ccccc3)cc2)CCC1`, for which the activation was inactive: -6.63%.

Regarding `Cc1ccc(-c2nc(S(=O)(=O)c3ccc(C)cc3)c(SCC(=O)c3ccccc3)o2)cc1`, the activation is inactive: -23.3%.

On to `CCN(C(=O)CSc1nc2ccccc2n1Cc1ccccc1C#N)c1ccccc1`, for which the activation was inactive: 1.14%.

For `Cc1ccc(-n2c(=O)[nH]c3cc(C(=O)NCCc4ccccc4)ccc3c2=O)cc1`, the activation is inactive: 6.68%.

Regarding `Cc1ccc2c(C)c(C(=O)NCC(c3ccc(Cl)cc3)N3CCOCC3)oc2c1` (stereo not drawn), the activation is inactive: -22.3%.

As to `COc1cc(NC(=O)C2CCN(c3nnc(C)c4c(C)n(-c5ccccc5)nc34)CC2)cc(OC)c1`, the activation is inactive: -20.1%.

On to `Cc1ccc(NC(=O)NC(C)c2c(-n3cccc3)sc(C)c2C)cc1F` (stereo not drawn), for which the activation is inactive: 4.31%.

With `Cc1ccc2c(c1)c(=O)c1ccccc1n2CCCC(=O)Nc1ccc(Cl)cc1C`, the activation was inactive: 13.7%.

Take `CCOC(=O)c1ccccc1NC(=O)c1cnn(-c2ccc(OC)cc2)c1C1CCN(C(=O)OC(C)(C)C)CC1`: the activation is inactive: 1.73%.

As to `CCOc1ccc(CNC(=O)c2cnc3c(C)cccn3c2=O)cc1`, the activation is inactive: -12.2%.

`COc1ccc(NC(=O)C2CCN(C(=O)c3sc4nc[nH]c(=O)c4c3C)CC2)cc1Cl`: the activation was inactive: -15.2%.

Turning to `CN(CC(=O)Nc1ccc(Br)cc1)S(=O)(=O)c1cccc2nsnc12`, the activation was inactive: 4.02%.

For `Cc1cc2oc(C(=O)N(Cc3ccc(N(C)C)cc3)CC3CCCO3)c(C)c2cc1Cl` (stereo not drawn), the activation is inactive: -23.9%.

On to `CN1C(=O)Cc2cc(S(=O)(=O)CCC(=O)N3CCN(c4ccc(Cl)cc4)CC3)ccc21`, for which the activation is inactive: 41.2%.

For `O=C(O)c1ccc(OCCN2CCCCC2)cc1`, the activation is inactive: 4.32%.

As for `COc1ccccc1NC(=O)CSc1nc2c(oc3ccccc32)c(=O)n1-c1ccccc1F`, the activation was inactive: 7.23%.

`CCOC(=O)C1CCN(c2nc3ccccc3nc2Cl)CC1`: the activation is inactive: 43.2%.

`COc1ccc(NC(=O)c2oc3ccccc3c2NC(=O)c2cc(C)cc(C)c2)c(OC)c1`: the activation was inactive: -15.4%.

`CC(=O)Nc1cccc(NC(=O)CSc2nccn2C2CCCC2)c1`: the activation is inactive: 7.91%.

For the compound `O=C(CN1C(=O)c2cccc3cccc1c23)Nc1cccc(F)c1`, the activation was inactive: 12.4%.
